This note sets out measurements from article PMC5993198 (Biochemistry, 2018).

In the test the target is Recombinant Flag-p53 wt bound to anti-Flag M2 affinity beads (UniProt P04637). Briefly: co-IP.
Sequence of UniProt P04637 (P04637 whole entry): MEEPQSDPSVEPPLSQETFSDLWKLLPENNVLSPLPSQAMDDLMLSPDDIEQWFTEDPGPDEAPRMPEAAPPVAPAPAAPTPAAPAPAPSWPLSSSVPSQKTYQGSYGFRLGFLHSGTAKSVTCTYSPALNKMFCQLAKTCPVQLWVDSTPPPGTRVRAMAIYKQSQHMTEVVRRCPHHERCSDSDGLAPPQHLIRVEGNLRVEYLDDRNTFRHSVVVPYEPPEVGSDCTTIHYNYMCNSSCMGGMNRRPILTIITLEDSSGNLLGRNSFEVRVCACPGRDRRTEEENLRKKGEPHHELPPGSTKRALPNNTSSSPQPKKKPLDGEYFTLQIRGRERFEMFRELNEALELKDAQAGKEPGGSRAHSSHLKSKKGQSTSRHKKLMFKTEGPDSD

B1: Recombinant GST-RelA-AD ([…]) (domain or fragment)
chain: not shown
B1: the binding result is on record as “binds”.
